From paper PMC4336329 (PLoS ONE, 2015)
The whole screen tested about 310,000 compounds, of which about 14,000 (4.5%) showed an effect of 50% or more. The effect is printed as a negative number. Some of the results follow.

These compounds were tested against human ether-à-go-go-related gene (hERG) potassium channel (human, UniProt Q12809) (assay: primary screen, population patch clamp on CHO cells stably expressing hERG).
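Note: peak tail current of the secondary pulse compared with the same well before compound.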

Sequence of human ether-à-go-go-related gene (hERG) potassium channel (Q12809 whole entry, looked up): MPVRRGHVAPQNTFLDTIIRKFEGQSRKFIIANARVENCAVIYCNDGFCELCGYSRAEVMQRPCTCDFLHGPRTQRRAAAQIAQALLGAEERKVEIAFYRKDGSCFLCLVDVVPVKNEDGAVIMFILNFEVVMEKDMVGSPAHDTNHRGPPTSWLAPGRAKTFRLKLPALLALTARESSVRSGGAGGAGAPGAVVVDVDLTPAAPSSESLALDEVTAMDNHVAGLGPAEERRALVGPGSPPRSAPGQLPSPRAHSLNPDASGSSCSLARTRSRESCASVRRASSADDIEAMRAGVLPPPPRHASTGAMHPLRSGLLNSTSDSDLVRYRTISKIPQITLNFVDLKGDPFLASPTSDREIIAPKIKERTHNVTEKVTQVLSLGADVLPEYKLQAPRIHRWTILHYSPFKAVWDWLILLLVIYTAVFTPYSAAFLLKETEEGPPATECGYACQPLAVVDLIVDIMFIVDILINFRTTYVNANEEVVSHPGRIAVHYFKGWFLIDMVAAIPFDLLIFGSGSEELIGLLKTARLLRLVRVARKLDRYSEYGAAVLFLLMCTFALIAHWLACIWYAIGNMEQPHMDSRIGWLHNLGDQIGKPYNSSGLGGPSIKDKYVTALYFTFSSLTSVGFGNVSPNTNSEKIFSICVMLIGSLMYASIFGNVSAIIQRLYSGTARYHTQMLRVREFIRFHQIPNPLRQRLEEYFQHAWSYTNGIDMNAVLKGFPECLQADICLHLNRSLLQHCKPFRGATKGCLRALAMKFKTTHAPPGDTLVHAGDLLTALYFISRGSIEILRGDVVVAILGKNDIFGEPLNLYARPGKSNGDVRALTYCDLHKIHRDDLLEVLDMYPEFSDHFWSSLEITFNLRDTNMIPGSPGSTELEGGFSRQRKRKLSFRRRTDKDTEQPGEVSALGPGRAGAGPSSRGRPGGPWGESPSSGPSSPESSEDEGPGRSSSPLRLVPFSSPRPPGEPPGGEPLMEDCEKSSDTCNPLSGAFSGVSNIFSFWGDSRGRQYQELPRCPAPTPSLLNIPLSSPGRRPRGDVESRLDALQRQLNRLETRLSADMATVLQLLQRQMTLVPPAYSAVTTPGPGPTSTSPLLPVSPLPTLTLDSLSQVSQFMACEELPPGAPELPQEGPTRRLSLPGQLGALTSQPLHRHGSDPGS

SMILES | hERG current change (%, negative = inhibition) at 10uM
CN(Cc1ccc(F)cc1)C(=O)c1cc(COc2ccc(F)cc2F)on1 | 1.65%
COc1ccc(C2=CSC3=NCCN23)cc1Cl | -2.92%
O=C(N/N=C/C=C/c1ccco1)c1ccccc1Cl | 10.3%
Cc1c(Cl)c(-c2n[nH]c(=S)n2Cc2ccco2)nn1C | 15.5%
O=C(COc1ccc(Cl)cc1)NCc1nnc(SCC(=O)Nc2ccccc2)o1 | -10%
CCOC(=O)N1CCN(CC(O)COc2ccc(OC)cc2C(C)(C)C)CC1.Cl (centres unmarked) | -12%
O=C(COC(=O)c1ccc(F)c(S(=O)(=O)N2CCOCC2)c1)NCCc1ccccc1 | -3.98%
COc1ccc2sc(N(CCCN(C)C)C(=O)c3nc4ccccc4s3)nc2c1.Cl | -5.36%
COCC(C)n1c(C)cc(C(=O)COC(=O)CNC(=O)c2ccccc2)c1C (centres unmarked) | -5.45%
Cc1nc(N2CCN(C(=O)c3ccco3)CC2)nc2c1C(=O)CC(C)C2 (centres unmarked) | -14.1%
COc1ccc(S(=O)(=O)NCc2csc(C)n2)cc1OC | 12.1%
COCCNC(=O)CCc1ccc(S(=O)(=O)Nc2ccc(C)cc2)cc1 | -11.7%
COc1cc(/C=C2\C(=O)NC(=O)N(c3ccccc3)C2=O)cc(OC)c1OC | 4.29%
Cc1cc(C(=O)N2CCCC(N3CCN(c4cccc(Cl)c4)CC3)C2)n(C)n1 (centres unmarked) | -4.79%
CN(C(=O)n1cnc2ccccc21)c1ccccc1 | -7.33%
O=C(Cc1ccccc1)N/N=C/c1ccc(OCC(=O)Nc2ccccc2)cc1 | -14.2%
CC(=O)NCC(=O)OC(C)C(=O)Nc1ccc(C(C)=O)cc1 (centres unmarked) | -10.4%
CCCn1c(=N)c(C(=O)NCC2CCCO2)cc2c(=O)n3cccc(C)c3nc21 (centres unmarked) | -76.3%
CCOc1cc2c(cc1OCC)-n1cccc1C(c1ccc(C)cc1C)NC2.Cl (centres unmarked) | -0.599%
Fc1ccc(-c2c[nH]c(=S)n2Cc2ccccc2)cc1 | -38%
O=C(Nc1nc2ccccc2s1)Nc1ccc(F)cc1F | 17.6%
O=C(NCCc1ccc(Cl)cc1)C12CC3CC(CC(O)(C3)C1)C2 | 9.52%

SMILES | hERG current change (%, negative = inhibition) at 10uM
CCN1CCN(S(=O)(=O)c2c(C)[nH]c(C)c2C(=O)N2CCCCC2)CC1 | 14.4%
Cc1cc(C)cc(-n2cc(C(=O)O)c(=O)cc2C)c1 | 15.8%
O=C(Nc1ccc2oc(-c3ccc4ccccc4c3)nc2c1)c1ccc2c(c1)OCCO2 | 20.7%
O=C1CC(NS(=O)(=O)c2ccc([N+](=O)[O-])cc2)CN1c1ccc2c(c1)OCCO2 (centres unmarked) | -1.64%
COc1ccc(NS(=O)(=O)c2ccc(C)c(C(=O)N3CCCCCCC3)c2)cc1 | -25.4%
O=C(c1cc(C(=O)NCc2ccccc2)c(=O)n(Cc2ccccc2)c1)c1cc(Cl)ccc1O | -0.908%
CCOC(=O)N1CCN(C(=O)Cc2cccc3ccccc23)CC1 | 3.71%
Fc1ccccc1NC(=S)NCCc1cccc(Cl)c1 | 9.75%
CCC/C(=N\NC(=O)C1CC1)c1ccccc1 | -2.21%
CCOc1cc(NC(=S)NCc2ccco2)c(OCC)cc1NC(=O)CC(C)C | 15.4%
Cc1ccc(-c2nc3ccccc3[nH]2)cc1NC(=S)NC(=O)c1ccccc1Br | 13.6%
COc1ccc(-c2nnc3sc(C(C)N4C(=O)c5ccccc5C4=O)nn23)cc1 (centres unmarked) | -25.2%
CCS(=O)(=O)c1ccc(O)c(NC(=O)Nc2ccc(C(C)(C)C)cc2)c1 | 9.2%
CS(=O)(=O)c1ccc(Cl)c(NC(=O)CCCc2nc3ccccc3c(=O)[nH]2)c1 | -1.05%
O=c1cc(O)c2ccccc2[nH]1 | 16.2%
CCn1c(COc2ccc(OC)cc2)nc2ccccc21 | -19.8%
Cc1ccc(-c2cc(C(F)F)n3ncc(C(=O)N4CCc5ccccc54)c3n2)cc1 | 13.2%
CNS(=O)(=O)c1cccc(C(=O)Nc2cccc(Cl)c2)c1 | -14.9%
Cc1c(CCO)c(=O)n2c([nH]c3ccccc32)c1C#N | 5.61%
Nc1ccc(C(=O)C(=O)c2ccc(N)cc2)cc1 | 14.2%
CC1CCCCN1c1cc(C#N)c(C#N)cc1[N+](=O)[O-] (centres unmarked) | -16%
C=CCSc1nc2c(c(=N)n1CC=C)C1CCCC1S2 (centres unmarked) | -13.6%

SMILES | hERG current change (%, negative = inhibition) at 10uM
COC(=O)c1cc(CNC(=O)c2ccc(N3CCCC3)c([N+](=O)[O-])c2)ccc1OC | -23.7%
COc1ccc(C(=O)N(Cc2ccco2)Cc2cc3cc(C)ccc3[nH]c2=O)cc1OC | -9.61%
COc1ccc(-c2ncncc2-c2ccccc2)c(O)c1 | -0.926%
O=C(Nc1ccccc1)C1=C[C@H](c2coc3ccccc3c2=O)C[C@H](OCCCCO)O1 | -70.3%
CC1CCc2c(sc(NC(=O)CN3CCN(C(=O)c4ccco4)CC3)c2C#N)C1 (centres unmarked) | -41.5%
O=C(Nc1ccc2oc(=O)ccc2c1)c1cccnc1 | -5.25%
N#CC(C#N)=C(N)/C(C#N)=C\c1ccc(O)cc1 | 8.75%
O=C(Nc1ccccc1N1CCCCC1)c1ccc(N2C(=O)c3ccccc3C2=O)cc1 | 5.73%
Cc1ccc2c(Cn3cc(C(F)(F)F)cc(Cl)c3=O)cc(=O)oc2c1 | -3.27%
CCc1nnc(NC(=O)c2ccc(-c3ccc(Cl)cc3)o2)s1 | 3.87%
CCOc1ccc2nc(Cl)c(C3CC(c4ccccc4)=NN3C(=O)c3ccco3)cc2c1 (centres unmarked) | 3.9%
CCNC(=O)O/N=C(\C)c1sc(-c2ccccc2)nc1C | -11.2%
CC(C)(C)Nc1ncnc2sc(-c3ccccc3)cc12 | -5.57%
CCN1CCN(CCC(=O)Nc2ccc3c(c2)OCO3)CC1.Cl | 5.98%
Cc1nc(-c2ccccn2)sc1C(=O)Nc1ccc(F)cc1 | -3.08%
O=C(Nc1ccc(F)cc1)N1CCN2C(=O)c3ccccc3C12c1ccccc1 (centres unmarked) | -16.6%
CCOc1ccc(CCNS(=O)(=O)c2cc3c(cc2C)NC(=O)CO3)cc1OCC | -22.7%
Cc1cc(NC(=O)CCC(=O)N(Cc2ccco2)C2(C(=O)NC3CCCCC3)CCCC(C)C2)no1 (centres unmarked) | -24.1%
COc1ccc(CC(=O)NNC(=O)COc2ccc(Cl)cc2C)cc1S(=O)(=O)N1CCOCC1 | -36.1%
C/C(CC(=O)Nc1cccc2c1CCCC2)=N\NC=O | 23%
c1cncc(-c2nnc3n2C2(CCCCC2)Cc2ccccc2-3)c1 | -5.73%
CCN(CC)S(=O)(=O)c1ccc(OC)c(NC(=O)C2CC(=O)N(c3ccc4c(c3)OCCO4)C2)c1 (centres unmarked) | -11.8%

SMILES | hERG current change (%, negative = inhibition) at 10uM
CC(=O)c1cccc(NC(=O)N2CCCC2C(=O)Nc2ccc3c(c2)OCCO3)c1 (centres unmarked) | -7.21%
CCc1ccc(NC(=O)c2sc3nc(C)nc(N4CCN(c5ccccn5)CC4)c3c2C)cc1 | 5.47%
COc1ccc(NC(=O)C(NC(C)=O)C(=O)NCc2ccccc2Cl)cc1 (centres unmarked) | -2.4%
N/C(=N\S(=O)(=O)c1cc(C(F)(F)F)cc(C(F)(F)F)c1)c1ccccc1 | -8.14%
C=CCNC(=S)/N=C/c1c(O)[nH]c(=O)[nH]c1=O | -52.8%
CCS(=O)(=O)Nc1cccc(C(=C2CCCCC2)c2cnc[nH]2)c1 | -30.2%
C=CCn1c(-c2cccc(S(=O)(=O)N(CC)CC)c2)n[nH]c1=S | 4.2%
CCN(CC)S(=O)(=O)c1ccc(Nc2nc3ccccc3n3nnnc23)cc1 | 6.62%
O=C(CSc1nnc(-c2cccc(Cl)c2)o1)Nc1ccc2c(c1)OCCO2 | -3.43%
COc1ccc(NS(=O)(=O)c2cc(NC(=O)c3ccc(=O)[nH]n3)ccc2C)cc1 | 1.51%
COC(=O)CCCC1=CC2=CC(=O)C(C)(OC(=O)c3cccs3)C(=O)C2=CN1Cc1ccccc1 (centres unmarked) | -16.8%
CCOc1ccc(N2C(=O)Nc3ccc(Br)cc3C2(O)C(=O)NC(C)C)cc1 (centres unmarked) | 8.92%
Cc1ccc(CN2CCC(N3CCC(C(=O)NCC4CCCO4)CC3)CC2)o1 (centres unmarked) | -4.02%
C=CCn1c2ccccc2c2nnc(SC(CC)C(=O)Nc3nc(C)c(C(=O)OCC)s3)nc21 (centres unmarked) | -43.9%
Cc1nc2ccc(Cl)cc2c(-c2ccccc2)c1CC(=O)O | 21.3%
N#CC(c1nc2ccccc2nc1N1CCCC1)S(=O)(=O)c1cccs1 (centres unmarked) | 15.5%
CN(C)S(=O)(=O)c1cccc(NC(=O)CSc2nnnn2-c2ccccc2)c1 | 0.149%
COC(=O)c1cc(NC(=O)CSc2nc(C)cc(=O)[nH]2)cc(C(=O)OC)c1 | 4.49%
O=S(=O)(c1cc(Cl)ccc1Cl)N1CCN(Cc2ccc3c(c2)OCO3)CC1 | -0.611%
Cc1nn(C)c(C(=O)N/N=C/c2cccc3ccccc23)c1Cl | -9.5%
